Data taken from the RNAGym collection of RNA variant scans (doi:10.7554/elife.90254).
Read counts are not given, so values of variants with three or more changes are uncertain.

B1: LINE1-mini (parent)
chain: GGCAGAGCUCAACACAGCGUGGCAAAGUGGCUGUGGCUAGACUGCC

Variants of: B1
Assay: self-cleavage, relative activity (ratio to wild type); higher = more cleavage; in vitro, sequencing; the parent is a self-cleaving ribozyme

Row | Variant | self-cleavage
1 | C13G C18A C37U A39U | 0
2 | C13G C18A G19C G21U G22U U38C G44A | 0.04
3 | C13G C18A U32G G40A C46A | 0
4 | C13G C18G C23A U32A G40C | 0.06
5 | C13G C18G G19A C45U | 0.17
6 | C13G C18G G21U | 0.04
7 | C13G C18G G21U C23U G40C | 0.01
8 | C13G C18G U32G | 0.03
9 | C13G C18U A39U G44U | 0.08
10 | C13G C18U U20A G29C C31U A39G | 0
11 | C13G C23A A41C | 0.04
12 | C13G C23A C31U U34A C46U | 0.04
13 | C13G C23G A25U | 0.29
14 | C13G C23G G40U | 0.12
15 | C13G C23U C42G | 0.06
16 | C13G C23U G36A C37A U38G | 0.01
17 | C13G C31G C37A | 0.02
18 | C13G C31G C45G | 0.04
19 | C13G C37G G40A | 0.05
20 | C13G G17A A26U U32G | 0.02
21 | C13G G17A G21A G35C G36C | 0.08
22 | C13G G17A G44A | 0.04
23 | C13G G17A U20A A39G | 0.02
24 | C13G G17C G21C G22U A25U G29C G40C | 0.04

Row | Variant | self-cleavage
25 | C13G G17C G21C G27A G30U U32C C45A | 0.02
26 | C13G G17C G27U | 0.03
27 | C13G G17C G44C | 0.01
28 | C13G G17C U20C U43A | 0.16
29 | C13G G17C U20G | 0.12
30 | C13G G17U A25U | 0.07
31 | C13G G17U C18A | 0.05
32 | C13G G17U C18A C45G | 0.12
33 | C13G G17U C23U A26G | 0.02
34 | C13G G17U G21A A25G | 0.01
35 | C13G G17U G30C | 0.03
36 | C13G G17U G35A | 0.05
37 | C13G G17U U20C | 0.01
38 | C13G G17U U28A G29U C42U | 0.28
39 | C13G G17U U34G | 0.02
40 | C13G G19A A26G | 0.04
41 | C13G G19A G30C U38G A39C | 0.08
42 | C13G G19C A39G | 0.08
43 | C13G G19C C23A G33U G44C | 0.01
44 | C13G G19U C31U G44C C45U | 0.03
45 | C13G G19U C37A G40U | 0.02
46 | C13G G19U U20G A41C | 0.04
47 | C13G G19U U32G | 0.07
48 | C13G G19U U38G G40U | 0.04

Row | Variant | self-cleavage
49 | C13G G21A G30C | 0.02
50 | C13G G21A G35U | 2.46
51 | C13G G21A U28A G30A G35U | 0.08
52 | C13G G21C A24C G29U U43C | 0.09
53 | C13G G21C A25U C37U A41G | 0.12
54 | C13G G21C U43G | 1.91
55 | C13G G21U G22C | 0.12
56 | C13G G21U G22U | 0.16
57 | C13G G21U G29U G40U | 0.12
58 | C13G G21U G30U | 0.04
59 | C13G G21U U28A | 0.21
60 | C13G G22A A24U | 0.24
61 | C13G G22A U28G C37A | 0.02
62 | C13G G22C C31U A41U C45U | 0.03
63 | C13G G27A G29A U38A | 0.23
64 | C13G G27A G30C | 0.05
65 | C13G G27A G40U | 0.12
66 | C13G G27C G29A | 0.17
67 | C13G G27C G30C G44A | 0.03
68 | C13G G27C U38C A39C A41U C42U | 0
69 | C13G G27U A39C | 0.11
70 | C13G G29C C42U U43G G44C | 0
71 | C13G G29C G30U C31U | 0.07
72 | C13G G29C G33C U43G | 0

Row | Variant | self-cleavage
73 | C13G G29C U32G G35C | 0.18
74 | C13G G29U C37A | 0.16
75 | C13G G30C U34C G40C | 0.05
76 | C13G G33A C45A | 0.01
77 | C13G G33A U34C | 0.05
78 | C13G G33C C37G A39U | 0.12
79 | C13G G33C C46U | 0.18
80 | C13G G33U G40C | 0.9
81 | C13G G35A G36C | 0.11
82 | C13G G35U A41U | 0.16
83 | C13G G35U G36A | 0.44
84 | C13G G35U G40A | 0.2
85 | C13G G36A A41C | 0.06
86 | C13G G40C C46G | 0.07
87 | C13G G40U C46A | 0.04
88 | C13G U20A A26C G30C | 0.11
89 | C13G U20A G27A C42U | 0.16
90 | C13G U20C C23A | 0.07
91 | C13G U20C G29C A39C C42U C45A | 0.01
92 | C13G U20C G33U | 0.01
93 | C13G U20G A25U | 0.19
94 | C13G U20G C45U C46A | 0.01
95 | C13G U20G G30U | 0.02
96 | C13G U28A A39C | 0.05

Row | Variant | self-cleavage
97 | C13G U28A C37G | 0.02
98 | C13G U32C G36U U38A C46G | 0.12
99 | C13G U32G G40A | 0.07
100 | C13G U34A A41C | 0.01
101 | C13G U38G A41U C42A | 0.02
102 | C13U A14C C15A A16G G17C C18G | 0.04
103 | C13U A14C C37G U38C | 0.05
104 | C13U A14C C45U | 0.07
105 | C13U A14C G17A G27U G35A | 0.01
106 | C13U A14C G30U C42G C46G | 0.03
107 | C13U A14C G33U G40A C46G | 0
108 | C13U A14C G40A | 0.17
109 | C13U A14G C18U C42U | 0.01
110 | C13U A14U C18A U20C | 0.02
111 | C13U A14U C23A | 0.12
112 | C13U A14U C37U | 0.04
113 | C13U A14U G17A | 0.13
114 | C13U A14U G19U G27U A41U G44U | 0.03
115 | C13U A14U G22C G29C U38G | 0.01
116 | C13U A14U G35A | 0.12
117 | C13U A14U U20A G21A U28C C37A U38C G40A | 0.05
118 | C13U A14U U20A G30A C42U | 0.16
119 | C13U A16C G19C C37A C45U | 0.09
120 | C13U A16C G21U G27C G29U | 0.15

Row | Variant | self-cleavage
121 | C13U A16C G36U | 0.56
122 | C13U A16C U20C A39U | 0.01
123 | C13U A16G A24C C42A | 0.1
124 | C13U A16G A41G | 0.02
125 | C13U A16G G17U G33A C42U | 0.01
126 | C13U A16G G19A | 0
127 | C13U A16U C18G G36A | 0.1
128 | C13U A16U C23G | 0.23
129 | C13U A16U C46U | 0.14
130 | C13U A16U G19C A26U G44C C46A | 0.06
131 | C13U A24C G44A | 0.02
132 | C13U A24C U28A U34C | 0.06
133 | C13U A24G C37G | 0.02
134 | C13U A24G U28G | 0.07
135 | C13U A24G U32A G35A C46G | 0.59
136 | C13U A24U A25U U32A A41U | 0.1
137 | C13U A24U G30A A41C | 0.04
138 | C13U A24U U28C G40A | 0.01
139 | C13U A24U U32C | 0.09
140 | C13U A25C G27C U38A A39U C46G | 0.02
141 | C13U A25C G27U G40C | 0.12
142 | C13U A25C G36U | 0.06
143 | C13U A25C U32A | 0.08
144 | C13U A25G C46U | 0.05

Row | Variant | self-cleavage
145 | C13U A25G U32C | 0.09
146 | C13U A25U G36A G40U G44U | 0.03
147 | C13U A25U U32G A39C | 0.03
148 | C13U A26C C37A G40U | 0.23
149 | C13U A26C G33A C46G | 0.1
150 | C13U A26G U32A | 0.09
151 | C13U A26G U32G | 0.15
152 | C13U A26G U34A | 0.08
153 | C13U A26G U34C | 0.02
154 | C13U A26U G27C C37A | 0.09
155 | C13U A26U G29U C45G | 0.05
156 | C13U A26U G36C G44A | 0.03
157 | C13U A41G U43A C46U | 0.02
158 | C13U A41U G44A | 0.03
159 | C13U C15A A16G G22U | 0.02
160 | C13U C15A C45A | 0.03
161 | C13U C15A G17C | 0.12
162 | C13U C15A G29A | 0.22
163 | C13U C15A G29C G40A C46A | 0.01
164 | C13U C15A G35U | 0.02
165 | C13U C15A U34G G40U | 0.03
166 | C13U C15A U43A | 0.18
167 | C13U C15G A26C | 0.02
